According to PMC6891891:
Results are given in words; binding and its absence hold for the method and conditions named. Some binding calls cover weakened binding; strength is not graded here. Sequences can lack the tags named with a protein.

Legend:
Assay in all cases: two-hybrid; directed Y2H: pGAD-C1 (AD) and pGBD-C1 (BD) fusions cotransformed into the Y2HGold strain; HIS3 reporter, 8 mM 3-AT added in Figure 4D
[1] = target: T1, N-terminally truncated, catalytically inactive Ulp2 (Ulp2CD-N400), Y2H fusion (S. cerevisiae) (UniProt P40537)
T1 sequence: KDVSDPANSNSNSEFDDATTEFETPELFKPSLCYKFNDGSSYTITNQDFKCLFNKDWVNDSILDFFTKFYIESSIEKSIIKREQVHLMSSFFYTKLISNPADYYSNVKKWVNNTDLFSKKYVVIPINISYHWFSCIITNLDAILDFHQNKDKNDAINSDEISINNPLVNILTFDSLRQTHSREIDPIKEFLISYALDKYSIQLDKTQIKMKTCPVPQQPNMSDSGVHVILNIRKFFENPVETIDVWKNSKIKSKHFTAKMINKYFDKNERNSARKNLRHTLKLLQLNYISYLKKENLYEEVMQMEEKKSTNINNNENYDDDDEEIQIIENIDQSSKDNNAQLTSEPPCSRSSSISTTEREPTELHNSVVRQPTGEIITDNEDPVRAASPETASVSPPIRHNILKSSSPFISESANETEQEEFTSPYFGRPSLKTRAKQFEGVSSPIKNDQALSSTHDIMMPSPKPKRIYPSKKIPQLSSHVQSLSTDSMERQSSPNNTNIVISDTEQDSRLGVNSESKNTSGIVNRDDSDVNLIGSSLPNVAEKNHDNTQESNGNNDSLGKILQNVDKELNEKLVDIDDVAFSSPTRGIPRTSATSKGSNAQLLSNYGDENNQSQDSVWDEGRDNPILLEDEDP

[2] = target: T2, catalytically dead Ulp2 (Ulp2-C624S), AD-fusion and BD-fusion for Y2H (S. cerevisiae) (UniProt P40537)
T2 sequence: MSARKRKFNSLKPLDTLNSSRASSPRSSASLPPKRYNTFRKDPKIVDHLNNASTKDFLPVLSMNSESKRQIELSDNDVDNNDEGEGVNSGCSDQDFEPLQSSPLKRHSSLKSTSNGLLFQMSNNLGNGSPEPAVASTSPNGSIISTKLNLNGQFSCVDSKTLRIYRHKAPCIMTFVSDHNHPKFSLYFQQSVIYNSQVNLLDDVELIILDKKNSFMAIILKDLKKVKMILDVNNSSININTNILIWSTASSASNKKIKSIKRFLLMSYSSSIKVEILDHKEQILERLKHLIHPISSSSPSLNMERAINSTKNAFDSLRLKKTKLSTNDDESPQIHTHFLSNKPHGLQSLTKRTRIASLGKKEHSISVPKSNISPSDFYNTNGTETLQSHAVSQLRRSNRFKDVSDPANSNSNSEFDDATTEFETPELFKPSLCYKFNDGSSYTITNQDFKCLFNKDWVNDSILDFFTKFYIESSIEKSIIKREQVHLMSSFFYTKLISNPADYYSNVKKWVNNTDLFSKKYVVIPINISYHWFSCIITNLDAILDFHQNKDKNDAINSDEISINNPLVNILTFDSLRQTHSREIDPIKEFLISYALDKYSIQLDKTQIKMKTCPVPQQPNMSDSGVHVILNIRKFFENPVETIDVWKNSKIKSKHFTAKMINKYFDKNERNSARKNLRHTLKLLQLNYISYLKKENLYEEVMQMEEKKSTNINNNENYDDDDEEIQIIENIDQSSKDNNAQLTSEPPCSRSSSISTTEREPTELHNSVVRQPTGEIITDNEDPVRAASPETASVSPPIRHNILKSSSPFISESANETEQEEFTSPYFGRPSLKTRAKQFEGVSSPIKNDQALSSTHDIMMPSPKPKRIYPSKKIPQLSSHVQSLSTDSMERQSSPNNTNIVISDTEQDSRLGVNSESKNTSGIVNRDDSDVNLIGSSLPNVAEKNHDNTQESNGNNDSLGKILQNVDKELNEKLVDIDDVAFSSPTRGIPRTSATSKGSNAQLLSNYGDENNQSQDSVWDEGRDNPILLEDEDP

[3] = target: T3, SUMO ligase Siz2, Y2H fusion (S. cerevisiae) (UniProt Q12216)
T3 sequence: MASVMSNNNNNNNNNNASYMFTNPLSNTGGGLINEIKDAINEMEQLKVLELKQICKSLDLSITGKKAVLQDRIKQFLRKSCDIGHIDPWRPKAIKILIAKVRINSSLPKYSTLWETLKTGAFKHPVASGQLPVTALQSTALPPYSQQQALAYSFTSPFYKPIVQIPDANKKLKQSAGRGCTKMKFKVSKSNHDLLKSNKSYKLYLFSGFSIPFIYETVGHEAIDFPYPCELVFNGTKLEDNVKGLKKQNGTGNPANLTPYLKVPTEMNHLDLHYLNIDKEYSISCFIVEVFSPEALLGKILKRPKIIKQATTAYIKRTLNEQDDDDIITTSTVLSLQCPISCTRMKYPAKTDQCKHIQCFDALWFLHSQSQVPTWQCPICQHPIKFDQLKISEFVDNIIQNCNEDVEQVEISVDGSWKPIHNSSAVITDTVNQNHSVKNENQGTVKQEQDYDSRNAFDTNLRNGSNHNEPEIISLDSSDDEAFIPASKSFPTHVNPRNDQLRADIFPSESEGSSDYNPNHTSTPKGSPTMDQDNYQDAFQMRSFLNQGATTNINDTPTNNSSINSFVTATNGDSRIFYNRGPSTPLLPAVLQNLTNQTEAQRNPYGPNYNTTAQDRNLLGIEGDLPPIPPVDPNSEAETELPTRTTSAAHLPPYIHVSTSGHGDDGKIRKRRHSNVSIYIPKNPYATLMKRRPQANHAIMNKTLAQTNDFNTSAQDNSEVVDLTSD

B1: Dbf4, AD-fusion and BD-fusion for Y2H (protein, UniProt P32325 1-704)
chain: MVSPTKMIIRSPLKETDTNLKHNNGIAASTTAAGHLNVFSNDNNCNNNNTTESFPKKRSLERLELQQQQHLHEKKRARIERARSIEGAVQVSKGTGLKNVEPRVTPKELLEWQTNWKKIMKRDSRIYFDITDDVEMNTYNKSKMDKRRDLLKRGFLTLGAQITQFFDTTVTIVITRRSVENIYLLKDTDILSRAKKNYMKVWSYEKAARFLKNLDVDLDHLSKTKSASLAAPTLSNLLHNEKLYGPTDRDPRTKRDDIHYFKYPHVYLYDLWQTWAPIITLEWKPQELTNLDELPYPILKIGSFGRCPFIGDRNYDESSYKRVVKRYSRDKANKKYALQLRALFQYHADTLLNTSSVNDQTKNLIFIPHTCNDSTKSFKKWMQEKAKNFEKTELKKTDDSAVQDVRNEHADQTDEKNSILLNETETKEPPLKEEKENKQSIAEESNKYPQRKELAATPKLNHPVLATFARQETEEVPDDLCTLKTKSRQAFEIKASGAHQSNDVATSFGNGLGPTRASVMSKNMKSLSRLMVDRKLGVKQTNGNNKNYTATIATTAETSKENRHRLDFNALKKDEAPSKETGKDSAVHLETNRKPQNFPKVATKSVSADSKVHNDIKITTTESPTASKKSTSTNVTLHFNAQTAQTAQPVKKETVKNSGYCENCRVKYESLEQHIVSEKHLSFAENDLNFEAIDSLIENLRFQI
binding [1]: no binding | binding [2]: binds | binding [3]: binds
